{
  "source": "the supplement of paper PMC8728848",
  "binders": {"B1": {"name": "Pwp3 (Candida glabrata) (protein)", "chain": "MGSSHHHHHHSSGLVPRGSHMASKNPVDFTTVCQFPDNFSKKPGFLATTARLGLWITGNSYKELLNYPGTFTLTTQQASTTTPNIQLRGTDLFTTIYGLTVYPLYLLVELQGYFVPTQSGMYTFSLTGSDDAAIIFIGNPSTFPCDAFKTWPQATANDITVTDSINPSRTLYMVKGVAYPLRIAYYNGLGNGVLNAAFTDPSGTKRTDWNGYIWQYDQCSTCTYK"}},
  "assay_in_all_cases": "glycan array binding signal (z-score within array); higher = stronger binding",
  "settings_in_all_cases": "glycan notation: IUPAC condensed, linker removed",
  "key": {"[1]": {"target": "Gal(b1-4)GlcNAc(b1-2)Man(a1-6)[Man(a1-3)]Man(b1-4)GlcNAc(b1-4)GlcNAc", "outline": "(§1)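 The binding signal is a Z-score computed within each array and averaged over linkers. Arrays of the same protein sequence at different concentrations or buffers were also averaged together. Data originate from 3228 arrays in the Consortium for Functional Glycomics database, kept only where the protein sequence was available.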"}, "[2]": {"target": "Gal(b1-4)GlcNAc(b1-2)[Gal(b1-4)GlcNAc(b1-4)]Man(a1-3)[Gal(b1-4)GlcNAc(b1-2)Man(a1-6)]Man(b1-4)GlcNAc(b1-4)GlcNAc", "outline": "as §1"}, "[3]": {"target": "Gal(b1-4)GlcNAc(b1-2)[Gal(b1-4)GlcNAc(b1-4)]Man(a1-3)[Gal(b1-4)GlcNAc(b1-2)[Gal(b1-4)GlcNAc(b1-6)]Man(a1-6)]Man(b1-4)GlcNAc(b1-4)GlcNAc", "outline": "as §1"}, "[4]": {"target": "Gal(b1-4)GlcNAc(b1-2)[Gal(b1-4)GlcNAc(b1-4)]Man(a1-3)[GlcNAc(b1-4)][Gal(b1-4)GlcNAc(b1-2)Man(a1-6)]Man(b1-4)GlcNAc(b1-4)GlcNAc", "outline": "as §1"}, "[5]": {"target": "Gal(b1-4)GlcNAc(b1-2)[Gal(b1-4)GlcNAc(b1-4)]Man(a1-3)[GlcNAc(b1-4)][Gal(b1-4)GlcNAc(b1-2)[Gal(b1-4)GlcNAc(b1-6)]Man(a1-6)]Man(b1-4)GlcNAc(b1-4)GlcNAc", "outline": "as §1"}, "[6]": {"target": "Gal(b1-4)GlcNAc(b1-2)[Gal(b1-4)GlcNAc(b1-6)]Man(a1-6)[Gal(b1-4)GlcNAc(b1-2)Man(a1-3)]Man(b1-4)GlcNAc(b1-4)GlcNAc", "outline": "as §1"}, "[7]": {"target": "Gal(b1-4)GlcNAc(b1-2)[Gal(b1-4)GlcNAc(b1-6)]Man(a1-6)[Gal(b1-4)GlcNAc(b1-2)Man(a1-3)]Man(b1-4)GlcNAc(b1-4)[Fuc(a1-6)]GlcNAc", "outline": "as §1"}, "[8]": {"target": "Gal(b1-4)GlcNAc(b1-2)[Gal(b1-4)GlcNAc(b1-6)]Man(a1-6)[GlcNAc(b1-4)][Gal(b1-4)GlcNAc(b1-2)Man(a1-3)]Man(b1-4)GlcNAc(b1-4)GlcNAc", "outline": "as §1"}, "[9]": {"target": "Gal(b1-4)GlcNAc(b1-2)[Gal(b1-4)GlcNAc(b1-6)]Man(a1-6)[GlcNAc(b1-4)][Gal(b1-4)GlcNAc(b1-2)[Gal(b1-4)GlcNAc(b1-4)]Man(a1-3)]Man(b1-4)GlcNAc(b1-4)[Fuc(a1-6)]GlcNAc", "outline": "as §1"}, "[10]": {"target": "Gal(b1-4)GlcNAc(b1-3)Gal(b1-3)GalNAc", "outline": "as §1"}, "[11]": {"target": "Gal(b1-4)GlcNAc(b1-3)Gal(b1-3)GlcNAc", "outline": "as §1"}, "[12]": {"target": "Gal(b1-4)GlcNAc(b1-3)Gal(b1-4)Glc", "outline": "as §1"}, "[13]": {"target": "Gal(b1-4)GlcNAc(b1-3)Gal(b1-4)GlcNAc", "outline": "as §1"}, "[14]": {"target": "Gal(b1-4)GlcNAc(b1-3)Gal(b1-4)GlcNAc(b1-2)Man(a1-3)[Gal(b1-4)GlcNAc(b1-3)Gal(b1-4)GlcNAc(b1-2)Man(a1-6)]Man(b1-4)GlcNAc(b1-4)GlcNAc", "outline": "as §1"}, "[15]": {"target": "Gal(b1-4)GlcNAc(b1-3)Gal(b1-4)GlcNAc(b1-2)Man(a1-3)[Gal(b1-4)GlcNAc(b1-3)Gal(b1-4)GlcNAc(b1-2)Man(a1-6)]Man(b1-4)GlcNAc(b1-4)[Fuc(a1-6)]GlcNAc", "outline": "as §1"}, "[16]": {"target": "Gal(b1-4)GlcNAc(b1-3)Gal(b1-4)GlcNAc(b1-2)[Gal(b1-4)GlcNAc(b1-3)Gal(b1-4)GlcNAc(b1-6)]Man(a1-6)[Gal(b1-4)GlcNAc(b1-3)Gal(b1-4)GlcNAc(b1-2)Man(a1-3)]Man(b1-4)GlcNAc(b1-4)GlcNAc", "outline": "as §1"}, "[17]": {"target": "Gal(b1-4)GlcNAc(b1-3)Gal(b1-4)GlcNAc(b1-2)[Gal(b1-4)GlcNAc(b1-3)Gal(b1-4)GlcNAc(b1-6)]Man(a1-6)[Gal(b1-4)GlcNAc(b1-3)Gal(b1-4)GlcNAc(b1-2)Man(a1-3)]Man(b1-4)GlcNAc(b1-4)[Fuc(a1-6)]GlcNAc", "outline": "as §1"}, "[18]": {"target": "Gal(b1-4)GlcNAc(b1-3)Gal(b1-4)GlcNAc(b1-3)Gal(b1-4)GlcNAc", "outline": "as §1"}, "[19]": {"target": "Gal(b1-4)GlcNAc(b1-3)Gal(b1-4)GlcNAc(b1-3)Gal(b1-4)GlcNAc(b1-2)Man(a1-3)[Gal(b1-4)GlcNAc(b1-3)Gal(b1-4)GlcNAc(b1-3)Gal(b1-4)GlcNAc(b1-2)Man(a1-6)]Man(b1-4)GlcNAc(b1-4)GlcNAc", "outline": "as §1"}, "[20]": {"target": "Gal(b1-4)GlcNAc(b1-3)Gal(b1-4)GlcNAc(b1-3)Gal(b1-4)GlcNAc(b1-2)Man(a1-3)[Gal(b1-4)GlcNAc(b1-3)Gal(b1-4)GlcNAc(b1-3)Gal(b1-4)GlcNAc(b1-2)Man(a1-6)]Man(b1-4)GlcNAc(b1-4)[Fuc(a1-6)]GlcNAc", "outline": "as §1"}, "[21]": {"target": "Gal(b1-4)GlcNAc(b1-3)Gal(b1-4)GlcNAc(b1-3)Gal(b1-4)GlcNAc(b1-2)[Gal(b1-4)GlcNAc(b1-3)Gal(b1-4)GlcNAc(b1-3)Gal(b1-4)GlcNAc(b1-6)]Man(a1-6)[Gal(b1-4)GlcNAc(b1-3)Gal(b1-4)GlcNAc(b1-3)Gal(b1-4)GlcNAc(b1-2)Man(a1-3)]Man(b1-4)GlcNAc(b1-4)[Fuc(a1-6)]GlcNAc", "outline": "as §1"}, "[22]": {"target": "Gal(b1-4)GlcNAc(b1-3)Gal(b1-4)GlcNAc(b1-3)Gal(b1-4)GlcNAc(b1-3)Gal(b1-4)GlcNAc(b1-2)Man(a1-3)[Gal(b1-4)GlcNAc(b1-3)Gal(b1-4)GlcNAc(b1-3)Gal(b1-4)GlcNAc(b1-3)Gal(b1-4)GlcNAc(b1-2)Man(a1-6)]Man(b1-4)GlcNAc(b1-4)GlcNAc", "outline": "as §1"}},
  "note": "This is one part of the list.",
  "data": [
    {"binder": "B1", "values": [
      {"measurement": "glycan array binding signal (z-score)", "setting": "[1]", "result": 0.511},
      {"measurement": "glycan array binding signal (z-score)", "setting": "[2]", "result": -1.19},
      {"measurement": "glycan array binding signal (z-score)", "setting": "[3]", "result": -0.044},
      {"measurement": "glycan array binding signal (z-score)", "setting": "[4]", "result": -0.137},
      {"measurement": "glycan array binding signal (z-score)", "setting": "[5]", "result": 0.215},
      {"measurement": "glycan array binding signal (z-score)", "setting": "[6]", "result": -0.324},
      {"measurement": "glycan array binding signal (z-score)", "setting": "[7]", "result": -0.106},
      {"measurement": "glycan array binding signal (z-score)", "setting": "[8]", "result": -0.058},
      {"measurement": "glycan array binding signal (z-score)", "setting": "[9]", "result": -0.123},
      {"measurement": "glycan array binding signal (z-score)", "setting": "[10]", "result": -0.558},
      {"measurement": "glycan array binding signal (z-score)", "setting": "[11]", "result": 2.55},
      {"measurement": "glycan array binding signal (z-score)", "setting": "[12]", "result": -0.475},
      {"measurement": "glycan array binding signal (z-score)", "setting": "[13]", "result": 2.11},
      {"measurement": "glycan array binding signal (z-score)", "setting": "[14]", "result": 0.908},
      {"measurement": "glycan array binding signal (z-score)", "setting": "[15]", "result": 3.5},
      {"measurement": "glycan array binding signal (z-score)", "setting": "[16]", "result": 1.29},
      {"measurement": "glycan array binding signal (z-score)", "setting": "[17]", "result": 1.87},
      {"measurement": "glycan array binding signal (z-score)", "setting": "[18]", "result": -1.53},
      {"measurement": "glycan array binding signal (z-score)", "setting": "[19]", "result": 2.01},
      {"measurement": "glycan array binding signal (z-score)", "setting": "[20]", "result": 2.05},
      {"measurement": "glycan array binding signal (z-score)", "setting": "[21]", "result": 0.753},
      {"measurement": "glycan array binding signal (z-score)", "setting": "[22]", "result": 0.693}
    ]}
  ]
}
